Measured values as given in PubChem BioAssay AID360 (National Center for Advancing Translational Sciences (NCATS), 2006).
Among all 48,000 compounds or so, about 550 (1.1%) were called active. Another 4% or so got no clear call; they are omitted. No stated cut-off is given here; in the data, active means potency below about 15 µM; inconclusive means mostly about 16 µM to 33 µM; inactive means weaker than that. This is one part of the list.

These molecules were tested against Lysosomal acid glucosylceramidase (Homo sapiens) (UniProt P04062) (assay: Glucocerebrosidase). Conditions: purified enzyme, resorufin glucoside fluorescence (screen aimed at inhibitors), 20 min; series mostly up to 77 µM.
Sequence of UniProt P04062 (P04062 whole entry, looked up): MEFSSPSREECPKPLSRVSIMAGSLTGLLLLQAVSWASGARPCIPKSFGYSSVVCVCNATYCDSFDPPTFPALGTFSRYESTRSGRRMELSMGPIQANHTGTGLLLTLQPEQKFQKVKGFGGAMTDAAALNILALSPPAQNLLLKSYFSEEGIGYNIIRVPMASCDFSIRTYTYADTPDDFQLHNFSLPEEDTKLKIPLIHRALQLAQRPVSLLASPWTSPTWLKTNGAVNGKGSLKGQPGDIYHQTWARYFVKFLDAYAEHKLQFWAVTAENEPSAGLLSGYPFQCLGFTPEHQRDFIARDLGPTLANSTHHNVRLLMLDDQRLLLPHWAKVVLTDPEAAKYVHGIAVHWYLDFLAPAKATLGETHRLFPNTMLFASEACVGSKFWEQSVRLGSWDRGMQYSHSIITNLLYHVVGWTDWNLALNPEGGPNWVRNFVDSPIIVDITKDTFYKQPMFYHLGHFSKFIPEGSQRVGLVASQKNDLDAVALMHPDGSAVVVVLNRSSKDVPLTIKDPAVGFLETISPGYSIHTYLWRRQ
Procedure, shortened: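 Normal human glucocerebrosidase (0.2 nM final) was assayed with resorufin β-D-glucopyranoside (30 uM final) in 50mM citric acid/KH2PO4, 10mM sodium taurocholate, 0.01% tween-20, pH 5.9. Compounds were titrated; fluorescence (Ex 548, Em 600) read after 20 min at RT.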
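Further: the screen sought inhibitors.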
Potency means the concentration at half of the fitted maximal effect.

Potency, inactive:
O=S(=O)(NCc1ccco1)N1CCCCCC1 > 76.9 µM, C=CCc1c(C)c(C#N)c2nc3ccccc3n2c1NCCN(C)C > 76.9 µM, COCC(=O)Nc1nc2n(n1)C(c1ccc(Cl)cc1)CC(c1ccc(OC)cc1)N2 (stereo not drawn) > 76.9 µM, Cc1csc(=Nc2ccc(S(=O)(=O)N3CCOCC3)cc2)n1Cc1ccco1 > 76.9 µM, CCn1c(SCC(=O)c2ccc(C)cc2)nnc1-c1ccoc1C > 76.9 µM, CCOC(=O)c1oc2ccccc2c1NC(=O)c1ccc2c(c1)OCO2 > 76.9 µM, CCN(CC(=O)Nc1ccc2c(c1)OCO2)Cc1nc2ccccc2c(=O)[nH]1 > 76.9 µM, CCOC(=O)C1CCN(CC(=O)c2c(C)[nH]c3cc(C)ccc23)CC1 > 76.9 µM, CC(=O)Nc1ccc(N2C(=O)CC(N3CC(C)OC(C)C3)C2=O)cc1 (stereo not drawn) > 76.9 µM, COc1cccc(NC(=O)CSc2nnnn2C(C)C)c1 > 76.9 µM, CCOC(=O)C1=C(C)NC(=O)NC1c1ccoc1 (stereo not drawn) > 76.9 µM, COC(=O)c1nc(-c2ccccc2)n[nH]1 > 76.9 µM, Nc1ncnc2c1ncn2CCN1CCCCC1 > 76.9 µM, COc1cc(-c2n[nH]c(=O)o2)cc(OC)c1OC > 76.9 µM, CCN(CC)CCCn1c(=S)[nH]c2ccc(Cl)cc2c1=O > 76.9 µM, COc1cccc(CC(=O)NCC2COc3ccccc3O2)c1OC (stereo not drawn) > 76.9 µM, CCOC(=O)CNC(=O)CSc1nnc(-c2cccc(OC)c2)n1CC > 76.9 µM, O=C(O)CCC(=O)N1CCc2cc(S(=O)(=O)NC3CCCC3)ccc21 > 76.9 µM, CCCC(=O)Nc1cc(C)c(NC(=O)Cc2ccccc2)cn1 > 76.9 µM, O=C(NCCCN1CCN(Cc2ccccc2Cl)CC1)Nc1ccccc1 > 76.9 µM, O=C(CCCOc1ccccc1)Nc1nccs1 > 76.9 µM, O=C(O)CN(Cc1ccccc1)S(=O)(=O)c1ccc(F)cc1 > 76.9 µM, c1ccc(-c2cnnc(SCc3cn4cccnc4n3)n2)cc1 > 76.9 µM, Clc1ccc(CSc2nnc(-c3ccncc3)o2)cc1 > 76.9 µM, CN1CCN(C(=O)c2cc(-c3ccccc3)on2)CC1 > 76.9 µM, Cc1cc(C)n(-c2ccc(C(=O)OCn3nnc4ccccc4c3=O)cc2)n1 > 76.9 µM, CCc1cc2c(N3CCN(c4nnc(CC)s4)CC3)ncnc2s1 > 76.9 µM, Cc1ccc(C(=O)OCC(=O)c2ccc(Cl)s2)s1 > 76.9 µM, Cc1cc2c(c(=O)n1Cc1cccnc1)C(c1ccc(F)cc1)C(C#N)=C(N)O2 (stereo not drawn) > 76.9 µM, O=C(c1cn(-c2ccccc2)nc1-c1ccccc1)N1CCOCC1 > 76.9 µM, Cn1c(Br)nc2c1c(=O)n(CC(O)COc1ccccc1)c(=O)n2C (stereo not drawn) > 76.9 µM, CC(C)c1c(O)nc(SCc2ccccc2)[nH]c1=O > 76.9 µM, O=C(CN1C(=O)NC2(CCCCCC2)C1=O)N1CCC(Cc2ccccc2)CC1, Cc1cccc(N2CCN(C(=O)CCNC(=O)Cn3ccc4ccccc4c3=O)CC2)c1C > 76.9 µM, O=c1[nH]n(-c2ccccn2)c(=O)c2ccccc12 > 76.9 µM, CC(=O)OCC1OC(n2ccc(=O)[nH]c2=O)C(O)C1O (stereo not drawn) > 76.9 µM, CC1CC(C)CN(C(=O)CCCn2c(=S)[nH]c3ccccc3c2=O)C1 (stereo not drawn), COc1ccc(-c2cc3nc(C)cc(NCCO)n3n2)cc1 > 76.9 µM, O=C(Cc1cccs1)NCc1ccc(F)cc1 > 76.9 µM, O=c1c2oc3ccccc3c2ncn1Cc1ccccc1F > 76.9 µM, CC(=O)Nc1nc2n(n1)C(c1ccc(Cl)cc1)C=C(C)N2 (stereo not drawn) > 76.9 µM, COc1ccc(CNC(=O)C2COc3ccccc3O2)c(OC)c1 (stereo not drawn) > 76.9 µM, COc1ccc(C)cc1S(=O)(=O)Nc1cccnc1 > 76.9 µM, CC1(C)CC(=O)c2cc(C(=O)Nn3cnnc3)c(=O)n(-c3ccccc3)c2C1 > 76.9 µM, CCCOC(=O)CCc1n[nH]c(=O)[nH]c1=O > 76.9 µM, c1ccc2c(c1)CCCn1nnnc1-2 > 76.9 µM, COc1ccc(-c2nnc(SCC(=O)Nc3cc(C)on3)n2N)cc1OC > 76.9 µM, O=C(NCc1nc2ccccc2[nH]1)c1ccc(Cl)c(S(=O)(=O)N2CCCC2)c1 > 76.9 µM, COc1cccc(-c2nnc(NC(=O)c3ccc(S(=O)(=O)N4CC(C)OC(C)C4)cc3)o2)c1 (stereo not drawn) > 76.9 µM, Cc1ccc(N2C(=O)c3n[nH]c(C)c3C2c2ccco2)cc1 (stereo not drawn) > 76.9 µM, Cc1cccc(-c2noc(CCC(=O)Nc3ccccc3)n2)c1 > 76.9 µM, CNS(=O)(=O)c1cc(OCC(N)=O)c(C)cc1Cl > 76.9 µM, CCC1(C)COC2(OC1)C(=O)Nc1ccccc12 (stereo not drawn) > 76.9 µM, CC(=O)Nc1ccc(OC(=O)c2cccnc2)cc1 > 76.9 µM, COCCNC(=O)Cn1c(=O)n(Cc2ccc(C(=O)NCc3ccco3)cc2)c(=O)c2ccccc21 > 76.9 µM, Clc1ccccc1OCc1nn2c(-c3ccncc3)nnc2s1 > 76.9 µM, CCOc1ccc(NS(=O)(=O)c2ccc3[nH]cc(C(=O)NC(C)CC)c(=O)c3c2)cc1 (stereo not drawn), CS(=O)(=O)N1CCN(C(=O)c2cccnc2)CC1 > 76.9 µM, O=C(NC1(C(=O)NC2CCCCC2)CCCCC1)c1ccc2c(c1)OCO2 > 76.9 µM, O=S(=O)(c1ccc2nc(Cc3cccc(C(F)(F)F)c3)[nH]c2c1)N1CCOCC1 > 76.9 µM, COCCCNC(=O)CN(Cc1ccc(Cl)cc1)S(C)(=O)=O > 76.9 µM, CC1CC(=O)Nc2ccccc2S1(=O)=O (stereo not drawn) > 76.9 µM, CC(OC(=O)CCCN1C(=O)c2ccccc2C1=O)C(=O)Nc1ncc(Cl)cc1Cl (stereo not drawn) > 76.9 µM, CCOC(=O)c1ccc(COC(=O)c2nonc2N)cc1 > 76.9 µM, O=C(O)C1=C(C(=O)Nc2ccc(F)c(Cl)c2)CCCC1 > 76.9 µM, CCCOC(=O)NC(CC)COC(=O)Nc1cccc(C)c1C (stereo not drawn) > 76.9 µM, CCCC12CN3CC(C)(CN(C1)C31CCCCC1)C2=O > 76.9 µM, CCN(CC)CC(C)CNC(=O)CC(C(=O)N1CCc2ccccc21)n1ccnc1 (stereo not drawn) > 76.9 µM, Cc1cc2c(C)cc(=O)oc2c2c1NCCC2 > 76.9 µM, CCOc1cc(C)c(Cl)cc1S(=O)(=O)NCc1ccc2c(c1)OCO2 > 76.9 µM, COc1ccc(N2CC(C(=O)NCc3ccccc3)CC2=O)cc1 (stereo not drawn) > 76.9 µM, CCCC1Cc2nc(N3CCCCC3)c(C#N)cc2CO1 (stereo not drawn) > 76.9 µM, C=C(C)c1cccc(C(C)(C)NC(=O)NCCCN2CCCC2=O)c1 > 76.9 µM, CC1CN(C(=O)N[C@@H](Cc2ccccc2)C(=O)O)CC(C)O1 (stereo partly drawn) > 76.9 µM, COC(=O)c1ccc(Cl)c(NC(=O)CSc2ncn[nH]2)c1 > 76.9 µM, O=C(NCCN1CCCC1)c1ccc2c(=O)n(CCc3ccccc3)c(=O)[nH]c2c1 > 76.9 µM, CCC(C)Sc1nc2c(c(=O)[nH]c(=O)n2C)n1CC(O)COc1cccc2ccccc12 (stereo not drawn) > 76.9 µM, CCCN(CCC)c1nc(NC2CCN(C(=O)OCC)CC2)nc(OC)n1 > 76.9 µM, Cc1cc2cc(CN(Cc3ccc4c(c3)OCO4)C(=O)c3ccco3)c(=O)[nH]c2cc1C > 76.9 µM, COc1ccc(NC(=O)CSc2nnc(CNc3ccc(F)cc3)o2)c(OC)c1 > 76.9 µM, COCCNS(=O)(=O)c1cc(F)ccc1OC > 76.9 µM, O=C1C2C3C=CC(O3)C2C(=O)N1CC(O)c1ccccc1 (stereo not drawn) > 76.9 µM, CCOC(=O)c1sc2nc(N3CCOCC3)c3c(c2c1N)CCCC3 > 76.9 µM, CC1=C(C(=O)Nc2ccccc2C)C(c2cccnc2)n2nc(CCCO)nc2N1 (stereo not drawn) > 76.9 µM, O=C(CSc1nnc(-c2ccccc2Br)o1)Nc1cccc2ccccc12 > 76.9 µM, Clc1ccccc1-c1nnc2sc(-c3ccccn3)nn12 > 76.9 µM, CC(=O)c1sc(NC(=O)c2ccc(Cn3cc(Br)cn3)o2)nc1C > 76.9 µM, COc1ccc(C)cc1-n1nnnc1SCC(=O)Nc1cc(C)on1 > 76.9 µM, COc1ccc(CCn2c(C)cc(C(=O)CSc3nnnn3-c3ccccc3)c2C)cc1OC > 76.9 µM, CSc1nc(N2CCOCC2)c2ccccc2n1 > 76.9 µM, O=C(CSc1nc2ccccc2c(=O)n1Cc1ccc(C(=O)NC2CC2)cc1)NCc1ccco1 > 76.9 µM, CS(=O)(=O)CCC(C(=O)N1CCOCC1)N1C(=O)c2cc(Cl)c(Cl)cc2C1=O (stereo not drawn) > 76.9 µM, CCn1cc(C(=O)N2CCN(Cc3ccc4c(c3)OCO4)CC2)c2cc(OC)c(OC)cc2c1=O > 76.9 µM
